In PubChem BioAssay AID540317 (National Center for Advancing Translational Sciences (NCATS), 2011):
In all, about 390,000 compounds went through this assay and about 2,200 (0.56%) were called active. Inconclusive means that the source gave no clear call. Such entries were picked first, then a sample of the others. Calls follow the shape of the dose curve; as a rule, active = well fitted inhibition curve with a large enough effect; inconclusive = small, poorly fitted or top-dose-only effect; inactive = no such curve, though single readings can be large or run the other way. Potencies of inconclusive entries are doubtful fits and often do not repeat.
Also: nearly all actives have a fitted effect of over 70% in size.
Potency is read from the fitted curve at half-maximal effect; tags tell the direction and shape of the fitted curve.

The molecules below were run against Chromobox protein homolog 1 (Homo sapiens) (UniProt P83916) (assay: HTS for Inhibitors of HP1-beta Chromodomain Interactions with Methylated Histone Tails). Conditions: AlphaScreen HP1-beta / biotin-H3K9me3 peptide binding; series mostly up to 114 µM.
Sequence of UniProt P83916 (P83916 whole entry, looked up): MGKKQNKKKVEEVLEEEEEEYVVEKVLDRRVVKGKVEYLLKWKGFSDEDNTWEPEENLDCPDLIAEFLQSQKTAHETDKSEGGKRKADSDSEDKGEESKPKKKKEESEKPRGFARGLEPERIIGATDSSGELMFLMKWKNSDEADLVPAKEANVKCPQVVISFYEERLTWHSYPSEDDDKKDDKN
In short: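 Compound inhibition of the preformed complex between 50 nM HP1-beta and 50 nM biotinylated H3K9me3 peptide was read by AlphaScreen. Buffer was PBS pH 7.4 with 0.01% Tween-20. Incubations ran 30 min at room temperature, with 10 ug/mL donor/acceptor beads.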
For `CCOc1cc(C(N)=O)cc(OCC)c1OCC`, the Potency was “inactive”.
`COc1cccc(C(=O)CSc2nnc(CNS(=O)(=O)c3ccc(C)cc3)n2C)c1` was tested, and the Potency was inconclusive: 79.4 µM [inhibitor, single point].
For `O=C(NNC(=O)c1cccnc1)Nc1cccc(Cl)c1Cl`, the Potency was inconclusive: 89.1 µM [inhibitor, single point].
With `O=C(CN1CCN(c2ccc(O)cc2)CC1)Nc1ccc2c(c1)OCCO2` the Potency was inconclusive: 79.4 µM [inhibitor, partial curve].
For `O=C(Nc1nccs1)c1cccnc1Cl`, the Potency was “inactive”.
`Cc1nc(NS(=O)(=O)c2ccc(Cl)s2)c2c3c(sc2n1)CCCC3` was tested, and the Potency was “inactive”.
With `CCN(CC)C(=O)c1sc2c(c1C)c(=O)n(-c1ccc(Cl)c(Cl)c1)c(=O)n2Cc1ccccc1C#N` the Potency was “inactive”.
`O=C(NNc1cc(Br)c(O)c(Br)c1)c1ccccc1` was tested, and the Potency was active: 39.8 µM.
With `COc1cccc(S(=O)(=O)N2CCN(C(=O)c3ccco3)CC2)c1` the Potency was “inactive”.
With `COc1cccc(NC(=O)c2ccc(NC(=O)C3CC(=O)OC34CCCCC4)cc2)c1` (stereo unspecified) the Potency was “inactive”.
`CCC(C)NC(=O)c1cc(-c2cccc(OC)c2)on1` (stereo unspecified) was tested, and the Potency was “inactive”.
`CN1C=CC(=O)[C@@H](O)[C@H]1c1ccccc1Br` was tested, and the Potency was “inactive”.
For `CCCCN(C)CCOc1ccccc1OCC`, the Potency was inconclusive: 39.8 µM [inhibitor, partial curve].
For `C/C(=N\NC(=O)CCCCCNC(=O)c1ccccc1)c1ccccc1O`, the Potency was “inactive”.
For `CC(=NNC(=S)N1CCCCCC1)c1ccccn1`, the Potency was inconclusive: 15.8 µM [inhibitor, full curve, poor fit].
For `CC(NC(=O)C1CCN(S(=O)(=O)c2cc([N+](=O)[O-])ccc2Cl)CC1)c1ccccc1` (stereo unspecified), the Potency was “inactive”.
In the case of `S=C(NNc1ccc2ccccc2c1)NC1CCCCC1`, the Potency is reported as active: 28.2 µM.
`Cc1ccc(CNCC(=O)Nc2ccc(N3CCOCC3)cc2)cc1` was tested, and the Potency was active: 39.8 µM.
`CCC(C)Sc1cc(-c2nc3ccc(C)cn3c2NCc2ccccc2)ccc1OC` (stereo unspecified) was tested, and the Potency was inconclusive: 28.2 µM [inhibitor, partial curve, poor fit].
`O=C(CC(C(=O)O)c1cccc(Cl)c1Cl)c1ccccc1` (stereo unspecified) was tested, and the Potency was “inactive”.
For `CCN(CC)CCCNC(=O)c1ccc(-c2nc(CN3CCc4ccccc43)c(C)o2)cc1`, the Potency was inconclusive: 20 µM [inhibitor, partial curve, poor fit].
In the case of `Cc1oc2cc([N+](=O)[O-])c(O)c([N+](=O)[O-])c2c1C(=O)c1ccc(Cl)cc1`, the Potency is reported as inconclusive: 22.4 µM [inhibitor, single point].
With `Cn1cccc1Cc1nnc(SCC(=O)Nc2ccc3c(c2)OCO3)n1CCc1ccccc1` the Potency was inconclusive: 50.1 µM [inhibitor, partial curve].
For `Oc1ccc(N=Nc2cccc(Cl)c2)cc1C=Nc1ccc(N2CCOCC2)cc1`, the Potency was inconclusive: 25.1 µM [inhibitor, partial curve].
In the case of `O=C(Cn1ncc2c3ccccc3n(Cc3ccc(Cl)cc3)c2c1=O)NCc1ccccn1`, the Potency is reported as “inactive”.
For `CCc1ccc(-n2cnc3cc(C(=O)NCc4ccc(C)cc4)ccc32)cc1`, the Potency was “inactive”.
`CSc1nc2sc3c(c2c(=O)n1-c1ccc(F)c(Cl)c1)CCN(C(C)=O)C3` was tested, and the Potency was “inactive”.
With `O=C(COc1ccc2c(c1)CCC2)N1CCc2ccccc21` the Potency was inconclusive: 3.16 µM [inhibitor, full curve, poor fit].
For `Cc1cc(C)c(OCCCCN2CCC(C)CC2)c(Br)c1`, the Potency was inconclusive: 56.2 µM [inhibitor, single point].
With `CC(=O)c1cccc(NC(=O)CC2S/C(=N/N=C/c3ccccc3)NC2=O)c1` (stereo unspecified) the Potency was “inactive”.
In the case of `CCOc1cc(/C=N\Nc2nc(-c3ccc(C)cc3)c(NC(C)=O)s2)ccc1O`, the Potency is reported as inconclusive: 44.7 µM [inhibitor, partial curve].
For `COc1cc(C)c(NC(=S)Nc2cccc(Cl)c2)cc1OC`, the Potency was inconclusive: 20 µM [inhibitor, full curve].
In the case of `O=[N+]([O-])c1ccc(OCCN2CCCCCC2)cc1`, the Potency is reported as inconclusive: 50.1 µM [inhibitor, partial curve, poor fit].
With `Fc1cccc(/C=N/Nc2ccc(Cl)nn2)c1` the Potency was “inactive”.
`Cc1nn(C(=O)c2cccc([N+](=O)[O-])c2)c(C)c1Sc1ccccc1` was tested, and the Potency was inconclusive: 3.55 µM [inhibitor, full curve].
`Cc1ccc(-c2nc(C)c(CCNS(=O)(=O)c3ccccc3F)s2)cc1` was tested, and the Potency was “inactive”.
For `Cc1ccc(Sc2ccc(CN3CCCC3)cc2[N+](=O)[O-])cc1`, the Potency was inconclusive: 12.6 µM [inhibitor, full curve, poor fit].
For `COc1ccc(OCCCN(C)Cc2ccccc2)cc1`, the Potency was inconclusive: 56.2 µM [inhibitor, partial curve, poor fit].
With `CC(=O)Nc1ccc(C(=O)N/N=C/c2cc(Br)cc(Br)c2O)cc1` the Potency was inconclusive: 79.4 µM [inhibitor, single point].
With `O=C(Nc1ccc(C(=O)N2CCCCC2)cc1)c1ccc(Br)cc1` the Potency was “inactive”.
For `CC(C)Oc1cccc(C(=O)NC(=S)Nc2ccc3c4c(cccc24)CC3)c1`, the Potency was inconclusive: 25.1 µM [inhibitor, partial curve].
For `COc1ccccc1-c1coc2c(CN3CCOCC3)c(O)ccc2c1=O`, the Potency was “inactive”.
`CCOC(=O)c1cc(S(=O)(=O)N2CCN(c3ccc(OC)cc3)CC2)[nH]n1` was tested, and the Potency was “inactive”.
For `Cc1ccc2c(CC(=O)NCc3ccc4c(c3)OCO4)coc2c1`, the Potency was “inactive”.
For `CC(=O)Oc1cccc(/C=c2\sc3nc(-c4ccco4)nn3c2=O)c1`, the Potency was “inactive”.
With `CC(C)N1C(=O)/C(=C\c2nc3ccccc3c(=O)[nH]2)c2ccccc21` the Potency was inconclusive: 44.7 µM [inhibitor, partial curve, poor fit].
For `FC(F)Oc1ccc(NC(=S)NCc2nc3ccccc3[nH]2)cc1`, the Potency was “inactive”.
`CCN(CC)c1ccc(N=Cc2c(C)[nH]c3ccccc23)cc1` was tested, and the Potency was active: 31.6 µM.
With `CCc1nnc(NS(=O)(=O)c2ccc(N/C=C\C(=O)c3cccc4ccccc34)cc2)s1` the Potency was inconclusive: 39.8 µM [inhibitor, single point].
With `Cc1ccc(CNC(=O)c2c3c(nc4ccccc24)C(=O)N(C2CCCCC2)C3)cc1` the Potency was inconclusive: 89.1 µM [inhibitor, partial curve, poor fit].
In the case of `COc1cccc(C(=O)NC2CCN(CC(=O)Nc3ccccc3Cl)CC2)c1`, the Potency is reported as “inactive”.
For `Cn1c(=O)c2ncn(CC(=O)NCCOc3ccc(C(C)(C)C)cc3)c2n(C)c1=O`, the Potency was “inactive”.
For `C#CCOCCOCCOCCNc1nc(N2CCN(C(=O)CCCCCCCCCCNC(=O)[C@@H](CCSC)n3cc(CCO)nn3)CC2)nc(N2CCN(C(=O)CCCCCCCCCCNC(=O)[C@H]([C@@H](C)CC)n3cc(CCCCCN)nn3)CC2)n1`, the Potency was inconclusive: 79.4 µM [inhibitor, single point].
For `Cc1ccc(NC(=O)[C@H](CC(C)C)NC(=O)[C@@H]2Cc3ccccc3CN2)cc1`, the Potency was “inactive”.
With `CCS(=O)(=O)n1nc(-c2ccccc2)nc1NCc1ccco1` the Potency was “inactive”.
`O=C(c1c(F)cccc1F)N1CCCC(c2nc(-c3ccc(F)cc3)no2)C1` (stereo unspecified) was tested, and the Potency was “inactive”.
`Clc1ccc(CNc2ccc(N3CCN(Cc4ccccc4)CC3)cc2)cc1` was tested, and the Potency was active: 17.8 µM.
For `Cc1cccc(N=Nc2ccc(O)c3ncccc23)c1`, the Potency was inconclusive: 44.7 µM [inhibitor, partial curve].
In the case of `COc1ccc(OC)c(S(=O)(=O)Nc2ccc(O)c(Sc3ncn[nH]3)c2)c1`, the Potency is reported as “inactive”.
For `Clc1ccccc1-c1ncc2ccccn12`, the Potency was inconclusive: 50.1 µM [inhibitor, partial curve].
In the case of `O=C(COc1ccc(S(=O)(=O)N2CCOCC2)cc1Cl)N1CCOCC1`, the Potency is reported as inconclusive: 89.1 µM [inhibitor, single point].
With `CC(=O)N(C)/C=C1\Sc2ccccc2C1=O` the Potency was “inactive”.
With `COc1ccc(/C=N/Nc2ccccc2C(=O)O)cc1Cn1cc([N+](=O)[O-])cn1` the Potency was “inactive”.
`O=C(CC(SCc1ccco1)c1ccc(O)cc1)c1cccs1` (stereo unspecified) was tested, and the Potency was inconclusive: 70.8 µM [inhibitor, partial curve, poor fit].
`O=C(OCc1ccccc1)c1ccc(NCc2cc(O)ccc2O)cc1` was tested, and the Potency was inconclusive: 79.4 µM [inhibitor, partial curve, poor fit].
`CCn1c(SCC(=O)NC(=O)NC(C)(C)C)nc2ccccc21` was tested, and the Potency was inconclusive: 7.08 µM [inhibitor, partial curve, poor fit].
With `CCN1CCN(CC(=O)Nc2cc(C)on2)CC1` the Potency was inconclusive: 28.2 µM [inhibitor, single point].
For `COc1ccc(/C=C2/C(=O)N(c3cccc(F)c3)N=C2C)c(OC)c1`, the Potency was “inactive”.
`CC1CC1C(=O)Nc1nc(-c2ccccn2)cs1` (stereo unspecified) was tested, and the Potency was inconclusive: 28.2 µM [inhibitor, single point].
In the case of `CCN1CCN(CCCOc2ccc(Cl)cc2Br)CC1`, the Potency is reported as inconclusive: 15.8 µM [inhibitor, full curve, poor fit].
In the case of `Oc1c(CN2CCOCC2)cc(CN2CCOCC2)c(O)c1O`, the Potency is reported as active: 6.31 µM.
In the case of `COc1cc2ncnc(NCc3ccc4c(c3)OCO4)c2cc1OC`, the Potency is reported as “inactive”.
`C=CCN(CC=C)CCOc1cccc(Oc2ccccc2)c1` was tested, and the Potency was inconclusive: 14.1 µM [inhibitor, full curve].
`COc1ccc(CCCc2nnc(SCC(=O)Nc3ccc(C)cc3C)o2)cc1` was tested, and the Potency was “inactive”.
`COc1ccc(CCN(C)CC(O)c2ccccc2)cc1OC` (stereo unspecified) was tested, and the Potency was inconclusive: 56.2 µM [inhibitor, partial curve, poor fit].
In the case of `CCN(C(=O)CN1CCN(C)CC1)c1cccc2ccccc12`, the Potency is reported as inconclusive: 15.8 µM [inhibitor, partial curve, poor fit].
